Measured values reported in PubChem BioAssay AID485364 (National Center for Advancing Translational Sciences (NCATS), 2010).
The campaign covered roughly 360,000 compounds. About 11,000 (3.1%) were called active. Inconclusive results, whose numbers are uncertain, are shown with a selection of clear calls. The call rests on the fitted dose curve; in most records, active means well fitted inhibition curve with a large enough effect; inconclusive means small, poorly fitted or top-dose-only effect; inactive means no such curve, though single readings can be large or run the other way. No potency is given beside an inconclusive call; the fits are too rough.

Target: Schistosoma mansoni thioredoxin glutathione reductase (TGR) (UniProt Q962Y6)
Experiment: qHTS Assay for the Inhibitors of Schistosoma Mansoni Peroxiredoxins; further: nearly all actives have a fitted effect of over 60% in size
Settings: purified TGR, DTNB reduction, TNB absorbance 405 nm; series mostly up to 114 µM
How it was run: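 First, TGR (20 nM dispensed) and NADPH were mixed with compound. Second, a 15 min room-temperature incubation followed. Third, further NADPH and then DTNB were added to start the reaction. Finally, TNB absorbance was monitored kinetically.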
Potency means the concentration at half of the fitted maximal effect; tags describe the fitted curve by direction and shape.

Row | Compound | Potency
1 | Oc1ccccc1-c1nnc(COc2ccc(Cl)cc2Cl)o1 | inactive
2 | Cc1csc(NC(=O)CSc2sc3c(O)cc(=O)[nH]c3c2C#N)n1 | inconclusive [inhibitor, partial curve]
3 | COCCn1c(C)cc(C(=O)COC(=O)c2cc3c(s2)CCC3)c1C | inactive
4 | COc1ccc(/C=C2/C(=O)NC(=S)N(C3CC3)C2=O)cc1CN1C(=O)c2ccccc2C1=O | active: 11.2 µM
5 | CCOc1ccccc1NC(=O)CN(C)S(=O)(=O)c1ccc2[nH]c(=O)oc2c1 | inactive
6 | O=C(NCc1cccs1)C1CCC(CNS(=O)(=O)c2ccc(Br)s2)CC1 (centres undefined) | inconclusive [inhibitor, partial curve]
7 | COc1cc(C(=O)Nc2nnc(S(=O)(=O)N(C)c3ccccc3)s2)cc(OC)c1OC | inactive
8 | COc1cc2c(cc1OC)CN(C(=O)/C=C/c1cccs1)CC2 | inconclusive [inhibitor, partial curve]
9 | O=C(Nc1ccccc1)N1CC=C(c2ccccc2)CC1 | inconclusive [inhibitor, partial curve]
10 | CC(=O)NCc1c(Cl)cccc1-n1cccc1 | inactive
11 | Cc1cc(SCC(=O)OCC(=O)N2CCN(C(=O)c3ccco3)CC2)c(C)cc1Br | inconclusive [inhibitor, partial curve]
12 | COc1ccc(S(=O)(=O)N(CC(=O)Nc2ccc(S(=O)(=O)N3CCOCC3)cc2)Cc2ccc(F)cc2)cc1 | inactive
13 | COc1ccc(C2C(C(C)=O)=C(C)N=c3s/c(=C\c4ccco4)c(=O)n32)c(OC)c1 (centres undefined) | inconclusive [inhibitor, partial curve]
14 | O=C(CSc1ncnc2c1nnn2Cc1ccc(F)cc1)NC1CCCCC1 | inactive
15 | CCCSc1nc(N)cc(=O)[nH]1 | inconclusive [inhibitor, single point]
16 | CCN(C(=O)c1sc2nc3n(c(=O)c2c1C)CCCC3)c1ccccc1F | inconclusive [inhibitor, single point]
17 | C/C(CCC(C)C)=N\NS(=O)(=O)c1ccc(C)c([N+](=O)[O-])c1 | inconclusive [inhibitor, full curve, poor fit]
18 | Cc1cc(O)c(C(c2ccccc2)N2CCC(C)CC2)c(=O)n1Cc1ccco1 (centres undefined) | active: 28.2 µM
19 | Cn1cc(C[C@H](C(=O)O)N2C(=O)c3ccc(C(=O)O)cc3C2=O)c2ccccc21 | inconclusive [inhibitor, partial curve]
20 | Cc1ccc(C2CC(=O)C(C=NCCN3CCN(CC(=O)Nc4cc(C)cc(C)c4)CC3)=C(O)C2)cc1 (centres undefined) | inconclusive [inhibitor, partial curve]
21 | Cc1cc(O)c(C=O)c2c1C(=O)Oc1c(CO)c(O)c3c(c1O2)C(O)OC3=O (centres undefined) | active: 14.1 µM
22 | Cc1cc(NC(=O)CCS(=O)(=O)c2ccc(F)cc2)no1 | active: 17.8 µM
23 | COc1ccc(Cl)cc1NC(=O)CC(C)=O | inactive
24 | N#C/C(=C\c1ccccc1OCC(=O)O)c1nc2ccccc2[nH]1 | inconclusive [inhibitor, single point]
25 | Cc1[nH]c2ccccc2c1C1C(c2ccccc2)=NN=C(C(C)C)N1O (centres undefined) | active: 11.2 µM

Row | Compound | Potency
26 | Cc1ccc(NC(=O)Cn2c(=O)n(CCC(=O)N3CCc4ccccc4C3)c(=O)c3ccccc32)c(C)c1 | inactive
27 | CC(Sc1nccn1C)C(=O)Nc1ccc(Cl)cn1 (centres undefined) | inactive
28 | O=[N+]([O-])c1ccccc1S(=O)(=O)N(CC1CO1)c1ccccc1 (centres undefined) | inconclusive [inhibitor, partial curve]
29 | O=c1[nH]c2ccc(NCc3ccc(F)cc3)cc2[nH]1 | inconclusive [inhibitor, partial curve]
30 | O=C(COc1ccc(F)cc1)Nc1ccc(OCc2cc(=O)n3ccsc3n2)cc1 | inactive
31 | CCC(C)(C)n1nnnc1CN(Cc1ccc(Cl)cc1)Cc1ccco1 | inconclusive [inhibitor, partial curve]
32 | CC(C)C(=O)N1CCN(c2ccccc2NC(=O)c2ccc([N+](=O)[O-])o2)CC1 | inconclusive [inhibitor, partial curve]
33 | O=[N+]([O-])c1ccc(-c2c(-c3ccccc3)ncc3ccc(F)cc23)cc1 | inconclusive [inhibitor, partial curve]
34 | CC(NC(=S)Nc1ccc([N+](=O)[O-])cc1)c1ccncc1 (centres undefined) | active: 44.7 µM
35 | CCOC(=O)N1CCC(NC(=O)CS(=O)(=O)Cc2nc(-c3ccc(OC)cc3)oc2C)CC1 | inconclusive [inhibitor, single point]
36 | CCOC(=O)c1c(NC(=O)C(C)NCc2ccco2)sc2c1CCC(C)C2 (centres undefined) | inconclusive [inhibitor, single point]
37 | CCC(NC(=O)CCc1nnc(-c2cc(C)on2)o1)C12CC3CC(CC(C3)C1)C2 (centres undefined) | inactive
38 | CCOc1ccc2nc(NC(=O)c3nc(SC(C)C)ncc3Cl)sc2c1 | inactive
39 | Cc1ccc(-n2ncc3c2CC(C)(C)CC3NC(=O)C2CCOCC2)cc1 (centres undefined) | inconclusive [inhibitor, partial curve, poor fit]
40 | COc1ccccc1NC(=O)N1CCn2c(nc3ccccc32)C1 | inactive
41 | CCOc1ccccc1N(CC)C(=O)c1ccc2c(=O)n3c(nc2c1)CCCCC3 | inactive
42 | CCc1cccc(OCCOC(=O)CNS(=O)(=O)c2ccc(NC(C)=O)cc2)c1 | inconclusive [inhibitor, single point]
43 | Cn1nc(C(=O)OCC(=O)Nc2ccc(Cl)cc2Cl)c2ccccc2c1=O | inactive
44 | COC(=O)c1ccc2c(c1)sc(=NC(=O)CCS(=O)(=O)c1ccccc1)n2C | active: 31.6 µM
45 | O=C(COC(=O)c1cc(-c2ccco2)nc2ccccc12)NCc1ccc2c(c1)OCO2 | active: 8.91 µM
46 | O=C(Nc1ccc(N2CCN(C(=O)c3ccco3)CC2)c(Cl)c1)c1cccs1 | inactive
47 | CCOC(=O)N1CCN(Cc2nc3ccc([N+](=O)[O-])cc3c(=O)n2-c2cccc(OC)c2)CC1 | inconclusive [inhibitor, full curve, poor fit]
48 | CCOC(=O)C1=C(CSc2nc3c(cc2C#N)CN(C)CC3)OC(N)=C(C#N)C1c1ccccc1 (centres undefined) | inconclusive [inhibitor, partial curve]
49 | c1cncc(C(c2nnnn2C2CCCCC2)N2CCCCC2)c1 (centres undefined) | inactive
50 | CS(=O)(=O)c1cc([N+](=O)[O-])c(Sc2nc3ccccc3[nH]2)c([N+](=O)[O-])c1 | active: 1.41 µM

Row | Compound | Potency
51 | C/C(=N\NC(=O)c1ccccc1F)c1cccc(NC(=O)c2ccc(C)cc2)c1 | inconclusive [inhibitor, full curve, poor fit]
52 | CN(Cc1c(F)cccc1Cl)C(=O)c1ccc(NC(=O)CC2SC(N3CCCC3)=NC2=O)cc1 (centres undefined) | inactive
53 | CN(C)C(=O)c1cc(C(=O)c2ccccc2Br)c[nH]1 | inactive
54 | c1ccc(CCSc2ncnc3nc[nH]c23)cc1 | inactive
55 | O=C(O)c1ccc([N+](=O)[O-])c(CS(=O)(=O)c2ccccc2)c1 | inconclusive [inhibitor, partial curve]
56 | Cc1ccc(NC(=S)N2CCN(Cc3ccccc3)CC2)cc1 | inactive
57 | O=c1c2c3nc4ccccc4nc3n(Cc3ccccc3)c2ncn1Cc1ccco1 | active: 8.91 µM
58 | Cc1ccc(NC(=O)Cn2cccc2)c(Br)c1 | inconclusive [inhibitor, partial curve]
59 | CCOC(=O)Nc1ccc2c(c1)N(C(=O)CCN1CCOCC1)c1ccccc1S2=O (centres undefined) | inconclusive [inhibitor, partial curve]
60 | CCN(CC)c1ccc(/C=N/c2sc3c(c2C#N)C2CCN3CC2)c(O)c1 | inactive
61 | Cc1cc(=O)n2[nH]c(-c3ccccc3Cl)cc2n1 | inconclusive [inhibitor, partial curve]
62 | CC(C)c1cccc(C(C)C)c1NC(=O)COC(=O)[C@H](C)NC(N)=O | inconclusive [inhibitor, single point]
63 | O=C(/C=C/c1ccccc1)Nc1ncn[nH]1 | inconclusive [inhibitor, full curve, poor fit]
64 | CCc1ccc2c(c1)c1nnc(NN)nc1n2C | inactive
65 | CCc1ccc(-n2c(CCC(=O)O)ccc2-c2cccs2)cc1 | active: 3.55 µM
66 | O=C(NCC(c1cccnc1)N1CCN(c2ccc(F)cc2)CC1)c1ccc(F)cc1 (centres undefined) | inconclusive [inhibitor, partial curve]
67 | Cc1ccc2nc3c(cc2c1)CN(Cc1ccco1)C(=NCC1CCCO1)S3 (centres undefined) | inconclusive [inhibitor, partial curve]
68 | CCOC(=O)Nc1ccc2c(c1)N(C(=O)CCCl)c1ccccc1[S@]2=O | active: 14.1 µM
69 | Oc1ccc(Br)cc1-c1cc(-c2ccccc2)n[nH]1 | inactive
70 | CCCCCc1ccc(-c2ccc(OC)cc2)nc1 | inconclusive [inhibitor, single point]
71 | O=C(NC(=S)Nc1ccc(S(=O)(=O)Nc2nccs2)cc1)c1cccnc1 | active: 12.6 µM
72 | COC(=O)[C@H]1[C@H]2C[C@@H]3c4[nH]c5cc(OC)ccc5c4CCN3C[C@H]2C[C@@H](OC(=O)c2ccc(N)cc2)[C@@H]1OC | inconclusive [inhibitor, partial curve]
73 | COC(=O)C1C(c2ccc(OC)c(OC)c2)NC(c2ccc(OC)c(OC)c2)C(C(=O)OC)S1(=O)=O (centres undefined) | active: 20 µM
74 | CC1CCN(S(=O)(=O)c2ccc(NC(=O)Cc3ccc(S(=O)(=O)N4CCOCC4)s3)cc2)CC1 | active: 79.4 µM
